# In PubChem BioAssay AID924 (National Center for Advancing Translational Sciences (NCATS), 2007):
# Several values for one entry are separate records, joined by “and”; a condition that tells them apart may be missing. Identical values can stand only once. The campaign covered roughly 130,000 compounds. About 1,200 (0.92%) were called active. Inconclusive results, whose numbers are uncertain, are shown with a selection of clear calls. Calls come from the whole dose curve; as a rule, active = well fitted cell-killing curve with a large enough effect; inconclusive = small, poorly fitted or top-dose-only effect; inactive = no such curve, though single readings can be large or run the other way. Where the call is inconclusive, the potency comes from a doubtful curve fit.
# Assay: qHTS Screen for Compounds that Selectively Target Cancer Cells with p53 Mutations: Cytotoxicity of p53ts Cells at the Permissive Temperature; note: nearly all actives have a fitted effect of over 55% in size;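 for activity change, negative = cytotoxicity: 0% = DMSO and -100% = full killing by reference compound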
# Settings: H1299-p53A138V at 32C, ATP luminescence viability, 24 h; activity change, negative = cytotoxicity: at 46.1 µM (top of the series)
# Outline: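 Cells: H1299 p53ts (A138V), 600/well, pre-incubated 16–30 h at 37C. Cpd up to 46 uM, 24 h, 32C. Readout: ATPlite luminescence, 20 min RT. Normalization: DMSO vs tamoxifen 100 uM. AC50 by Hill equation.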
# Potency is the fitted concentration of half-maximal effect; tags give direction and shape of the fitted curve.
Structure (SMILES),Potency,"activity change, negative = cytotoxicity"
Cc1ccc(S(=O)(=O)N(CC(O)Cn2c3ccccc3c3ccccc32)c2cccc(C(=O)NCCO)c2)cc1 (centres undefined),"inconclusive: 31.6 µM [cytotoxic, single point]",
CCOc1cc(CNc2ccc(O)cc2)cc(Cl)c1OCc1ccccc1,"inconclusive: 25.1 µM [cytotoxic, single point]",
CCCCc1ccc(NC(=O)C2CCCO2)cc1 (centres undefined),"inconclusive: 10 µM [cytotoxic, partial curve]",
Cc1cc(C)cc(OCCCCCNCCO)c1,"inconclusive: 3.55 µM [cytotoxic, partial curve, poor fit]",
CCc1ccc(C(=O)c2cn(CC(=O)NCc3ccc(C)cc3)c3nc(C)ccc3c2=O)cc1,,inactive: 7.71%
O=C(NCc1ccco1)c1sc2ccccc2c1Cl,"inconclusive: 17.8 µM [cytotoxic, single point]",
O=C(Nc1nc2c(F)cccc2s1)c1ccc2c(c1)OCCO2,active: 10 µM,
O=C(Nc1ccc(C(=O)N2CCCC2)cc1)c1ccccc1F,"inconclusive: 12.6 µM [cytotoxic, partial curve]",
O=C(Cc1nc2ccccc2s1)c1ccc(O)cc1O,"inconclusive: 12.6 µM [cytotoxic, partial curve]",
CCOc1ccccc1CNC(=O)c1oc2c(c1C)-c1nn(Cc3cccc(Cl)c3)cc1CC2,"inconclusive: 31.6 µM [cytotoxic, single point]",
Cc1c(C(=O)Nc2ccc3c(c2)OCO3)sc2nc(-c3ccccc3)cn12,,inactive: -10.4%
O=C(COc1ccc(F)cc1)Nc1ccc2nc(SCCOc3ccccc3)sc2c1,,inactive: -5.31%
CCCC(=O)n1nc(-c2ccco2)nc1SCc1ccccc1,"inconclusive: 15.8 µM [cytotoxic, partial curve]",
Cc1ccccc1OCC(=O)Nc1ccc2nc(SCC(=O)N3CCOCC3)sc2c1,"inconclusive: 20 µM [cytotoxic, single point]",
COc1cccc(CNc2ccc3c(c2)ncn3C(C)C)c1OC,"inconclusive: 15.8 µM [cytotoxic, partial curve]",
CCCCN(Cc1ccccc1)C(=O)c1oc(=O)c2ccccc2c1-c1ccc(C)cc1,,inactive: 12.5%
COc1cc2c(C=O)c3c4c(cc(OC)c(OC)c4c2cc1OC)CCN3C,"inconclusive: 31.6 µM [cytotoxic, single point]",
COc1cccc(CNC(=O)c2ccc(Cn3c(SCc4ccccc4)nc4cccnc43)cc2)c1,,inactive: -26.4%
O=C(Nc1ccc(Nc2ccccc2)cc1)c1ccco1,"inconclusive: 31.6 µM [cytotoxic, single point]",
CCc1ccccc1NC(=O)CN1C(=O)CCc2cc(S(=O)(=O)N3CCCCC3)ccc21,,inactive: -9.4%
Cc1ccc(CCNC(=O)C2CCCN(C(=O)c3cc4sccc4n3C)C2)cc1 (centres undefined),"inconclusive: 31.6 µM [cytotoxic, single point]",
COC(=O)c1cc(NC(=O)Cn2nc(C)n3cccc3c2=O)cc(C(=O)OC)c1,,inactive: -4.07%
CC(C)c1cc(C(=O)Nc2cc(Cl)ccc2O)no1,,inactive: -29.4%
CCCCN(C)C(=O)C(Cc1ccccc1)NS(=O)(=O)c1ccc2c(c1)c(=O)n(C)c(=O)n2C (centres undefined),"inconclusive: 31.6 µM [cytotoxic, single point]",
COc1ccc(OC)c(NC(=O)c2c(NCc3ccc(C)o3)sc3c2CCC(C)C3)c1 (centres undefined),"inconclusive: 31.6 µM [cytotoxic, single point]",

Structure (SMILES),Potency,"activity change, negative = cytotoxicity"
CC(C)N(C(=O)Nc1ccc2nccnc2c1)C(C)C,"inconclusive: 20 µM [cytotoxic, single point]",
Cc1ccc(CSc2nc3ccc(NC(=O)C(C)C)cc3s2)cc1,,inactive: -11.6%
Fc1ccc(-c2nnc(NC3=NCCCCC3)o2)cc1,active: 3.98 µM,
N#CC(=C1CCCC1)c1nc(-c2ccccc2O)cs1,active: 10 µM,
Cc1ccc(C)c(NS(=O)(=O)c2ccc3c4c(cccc24)C(=O)N3)c1,"inconclusive: 31.6 µM [cytotoxic, single point]",
NC[C@@H]1O[C@H](C23CC4CC(CC(C4)C2)C3)Cc2c1ccc(O)c2O,"inactive and inconclusive: 31.6 µM [cytotoxic, single point]",
COc1ccccc1Nc1nn2c(=O)c3ccc(C(=O)NCc4cccs4)cc3nc2s1,active: 3.16 µM,
COCc1nnc(NC(=O)c2ccc(S(=O)(=O)N3CCCCCC3)cc2)o1,"inconclusive: 12.6 µM [cytotoxic, partial curve]",
O=C(Nc1cc(Cl)cc(Cl)c1)c1ccc(F)c(S(=O)(=O)NC2CCCC2)c1,"inconclusive: 12.6 µM [cytotoxic, single point]",
COC(=O)c1c(-c2cccs2)csc1NC(=O)c1ccc(Cl)cc1,,inactive: -7.53%
Cn1c(=O)[nH]c(=O)c2[nH]c(N(Cc3ccccc3)Cc3ccccc3)nc21,"inconclusive: 25.1 µM [cytotoxic, single point]",
Cc1cc(C(=O)CN2CCC(C)CC2)c(C)n1-c1ccc(F)cc1,,inactive: -0.28%
Clc1ccc2oc(-c3ccccn3)nc2c1,"inconclusive: 15.8 µM [cytotoxic, partial curve]",
COc1ccc2c(c1)c1c(c(=O)n(-c3ccc(F)c(Cl)c3)c(=O)n1Cc1ccccc1F)n2C,,inactive: 4.13%
Cc1nc2ccc(S(=O)(=O)NCC(=O)N3CCC(N4CCCCC4)CC3)cc2s1,"inconclusive: 20 µM [cytotoxic, partial curve, poor fit]",
COc1ccc(-c2nc3sc(CCNC(=O)C(C)(C)C)c(C)n3n2)cc1,"inconclusive: 17.8 µM [cytotoxic, single point]",
NC(=O)c1cc(N)ccc1N1CCCC1,,inactive: -3.81%
Cc1cc(C)nc(N(C#N)CC(=O)N2CCC(C(N)=O)CC2)n1,active: 3.98 µM,
Cc1cc(C)n2c(Nc3ccc4c(c3)OCCO4)c(-c3ccccc3)nc2n1,,inactive: 0.659%
O=C1c2ccccc2C(=O)C1c1ccncc1,active: 3.16 µM,
CN(C(=O)c1ccccc1)c1nc2ccccc2s1,active: 10 µM,
O=C(c1ccc2c(c1)N(Cc1cccc(Cl)c1)C(=O)c1ccccc1S2(=O)=O)N1CCc2ccccc21,,inactive: 15%
COc1ccc(S(=O)(=O)c2cc3cc(C(C)(C)C)cc(O)c3oc2=O)cc1,"inconclusive: 28.2 µM [cytotoxic, single point]",
O=C1c2ccccc2-c2onc3ccc(Oc4ccccc4)c1c23,"inconclusive: 0.0079 µM [cytotoxic, full curve, poor fit]",
CC(=O)c1sc(Nc2nc3ccc(F)cc3s2)nc1C,active: 20 µM,

Structure (SMILES),Potency,"activity change, negative = cytotoxicity"
Oc1c(Cl)cc(Cl)c2cccnc12,"inconclusive: 7.94 µM [cytotoxic, partial curve]",
CSc1cccc(Nc2cc(C(=O)NCCCN(Cc3ccccc3)C(C)C)c3ccccc3n2)c1,"inconclusive: 25.1 µM [cytotoxic, single point]",
COc1cccc(Cn2c(=O)c(-c3ccc(Cl)cc3)nc3cncnc32)c1,,inactive: -25.7%
c1ccc(CSc2ccc(-c3ccco3)nn2)cc1,"inconclusive: 35.5 µM [cytotoxic, single point]",
COc1ccc(NC(=O)N2CCc3c([nH]c4ccc(OC)cc34)C2c2ccc(OC)cc2)cc1 (centres undefined),"inconclusive: 2 µM [cytotoxic, full curve, poor fit]",
CC(=O)c1cccc(NC(=O)C2CCCN(S(=O)(=O)c3ccccc3)C2)c1 (centres undefined),,inactive: 1.36%
O=c1cc(-c2c(F)c(F)c(F)c(F)c2F)oc2c(F)c(F)c(F)c(F)c12,"inconclusive: 25.1 µM [cytotoxic, single point]",
Cc1cccc(NC(=O)Cn2c(=O)n(CCc3ccccc3)c(=O)c3sc4ccccc4c32)c1,,inactive: -5.37%
Cc1ccc(S(=O)(=O)CCC(=O)c2ccc(O)cc2O)cc1,"inconclusive: 31.6 µM [cytotoxic, single point]",
Cc1[nH]c2ccc(-c3nnc(SCC(=O)c4ccccc4F)o3)cc2c1C,"inconclusive: 15.8 µM [cytotoxic, single point]",
COc1ccc(-c2nnc(SC(C)C(=O)O)o2)cc1 (centres undefined),"inconclusive: 12.6 µM [cytotoxic, single point]",
COc1ccc(N2C(=O)C(CC(=O)Nc3ccccc3)N(CCC3=CCCCC3)C2=O)cc1 (centres undefined),,inactive: -5.08%
CCc1ccc2occ(CC(=O)Nc3ccc(OC)c(Cl)c3)c2c1,,inactive: 11.6%
Cc1nc(SCC(=O)Nc2ccc(C)c(Cl)c2)cc(-c2ccccc2)n1,"inconclusive: 6.31 µM [cytotoxic, single point]",
COc1ccccc1NC(=O)CSc1nnc(-c2ccc(C)cc2)o1,active: 7.94 µM,
COc1ccc(N2CCN(C(=O)C(C)n3nc(C)c4sc5ccccc5c4c3=O)CC2)cc1 (centres undefined),active: 10 µM,
CCCCOc1ccc(C(=O)Nc2cccc(C)n2)cc1,active: 12.6 µM,
NC(=O)c1ccccc1N/C=C/C(=O)c1ccccc1,active: 5.01 µM,
CC(CCc1ccccc1)NC(=O)Cn1ncc2c3ccccc3n(Cc3ccccc3)c2c1=O (centres undefined),,inactive: -4.49%
CC1(C)CCCC(C)(C)N1CC(O)COCCOc1ccc(Br)cc1 (centres undefined),"inconclusive: 14.1 µM [cytotoxic, partial curve]",
Oc1cc2c(cc1O)C1c3ccc(O)c(O)c3OCC1(O)C2 (centres undefined),"inconclusive: 31.6 µM [cytotoxic, single point]",
Cc1cc2oc(C(=O)N(Cc3ccc(N(C)C)cc3)Cc3ccco3)c(C)c2cc1Cl,,inactive: 5.48%
Clc1ccccc1-c1nc(-c2ccccc2)n[nH]1,"inconclusive: 12.6 µM [cytotoxic, partial curve]",
CNc1nc(-c2ccc(C(=O)N(C)C)cc2)nc2ccccc12,"inconclusive: 10 µM [cytotoxic, partial curve]",
